Experimental findings from PubChem BioAssay AID1347073 (National Center for Advancing Translational Sciences (NCATS), 2019) are described below.

The whole screen tested about 45,000 compounds, of which about 200 (0.44%) were called active. Inconclusive results (about 7%) are left out. Calls follow the shape of the dose curve; as a rule, active = well fitted activation curve with a large enough effect; inconclusive = small, poorly fitted or top-dose-only effect; inactive = no such curve, though single readings can be large or run the other way. This is one part of the list.

This test in a line: qHTS of TDP-43 Inhibitors: NCGC Sytravon Library Screen. Also: 0% is about no effect; nearly all actives have a fitted effect of over 55% in size. To be noted: yeast TDP-43 toxicity rescue, BacTiter-Glo growth, 24 h; series mostly up to 46.1 µM; growth rescue (activation): at the top concentration. In outline:
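TDP-43-expressing yeast, pregrown in raffinose, seeded at OD600 0.02 in galactose medium with compound for 24 hr at 30 deg C. Growth read by BacTiter-Glo luminescence, so rescue of toxicity appears as activation.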
On the technique in general: In qHTS, concentration-response curves come from the screen itself.
Take `CC1(c2ccccc2)NC(=S)N2C1NC(=S)N2c1ccccc1` (configuration not stated): the “growth rescue (activation)” value is inactive: -5.16%.
In the case of `COCc1c(C#N)c(NCc2cc(OC)c(OC)c(OC)c2)nc(C)c1[N+](=O)[O-]` it was inactive: 5.52%.
With `CC(C)C(=O)NC(=S)Nc1nnn(C)n1`, the “growth rescue (activation)” value is inactive: -8.39%.
For `COc1ccc(-c2nnc(S/C(=C/c3ccc(Cl)cc3)C(=O)O)o2)cc1`, the “growth rescue (activation)” value was inactive: 3.34%.
The value for `Cc1ccc(SCC(=O)n2nc(C)cc2C)cc1` was inactive: -13.7%; that for `CCOC(=O)c1cnc2ccc(OC)cc2c1Nc1ccc(N2CCN(C)CC2)cc1` was inactive: 7.88%.
The value for `Cc1cc(NC(=O)CCC(=O)N(c2ccc(F)cc2)C(C(=O)NC2CCCC2)c2ccccc2)no1` (configuration not stated) was inactive: 2.63%; that for `COc1ccc(Nc2nc(-c3ccc(OC)cc3)c(CCC(=O)O)s2)cc1` was inactive: 6.5%; that for `CCCn1c(SCC(=O)N(CC)CC)nnc1-c1ccncc1` was inactive: 2.93%.
Consider `O=C(CN1CCCC1)OCCCC1CCCCC1`, for which the “growth rescue (activation)” value is inactive: 2.34%.
In the case of `O=C(O)CNC(=S)N(Cc1ccccc1)Cc1cccs1`, the “growth rescue (activation)” value is inactive: 2.31%.
In the case of `COc1cccc(-c2nc(N3CCCC3)c3ccccc3n2)c1O` it was inactive: 20.3%; in that of `COCCN(C(=O)CCC(=O)Nc1nccs1)C(C(=O)NCCC(C)C)c1ccc(OC)cc1` (configuration not stated), inactive: 8.35%.
In the case of `Cc1cc(=O)oc2cc(OCC(=O)Nc3cccc(S(=O)(=O)N(C)C)c3)ccc12`, the “growth rescue (activation)” value is inactive: -19.2%.
For `Cc1cccc(N2CCN(C(=O)[C@H](C)N3C(=O)C4CC=CCC4C3=O)CC2)c1C` (some centres not stated), the “growth rescue (activation)” value was inactive: 17.7%.
Consider `O=C(NC1CCCCC1)C(c1ccc(O)cc1)N(C(=O)c1cnccn1)c1cccc(F)c1` (configuration not stated), for which the “growth rescue (activation)” value is inactive: 16.3%.
The value for `Cc1cc(C)c(C(=O)CC2(O)C(=O)Nc3ccccc32)cc1C` (configuration not stated) was inactive: 16.3%; that for `Cc1ccc(C(=O)NCC(=O)N2CCCCCC2)cc1` was inactive: 0.139%.
The value for `C=CCNc1nc(N)c(C(=C(C#N)C#N)c2ccc(Br)cc2)s1` was inactive: 5.97%; that for `NS(=O)(=O)c1ccc(CCNC(=O)CSc2nc3ccccc3c(=O)n2CCN2CCOCC2)cc1` was inactive: 0.201%.
As to `OCCCNc1ncnc2c1ncn2[C@H]1CN(Cc2ccc3c(c2)OCO3)C[C@@H](CO)O1`, the “growth rescue (activation)” value was inactive: -4.67%.
For the compound `Nc1ncc2c(n1)CC(c1ccco1)CC2=O` (configuration not stated), the “growth rescue (activation)” value was inactive: 25.9%.
The value for `Cc1ccc(NC(=O)CSc2nc(C)c(C)c(C)n2)c([N+](=O)[O-])c1` was inactive: 13.1%; that for `Cc1ccc(NC(=O)c2cc(NC(=O)c3ccccc3C(=O)O)ccc2N2CCCCC2)cc1` was inactive: 7.47%; that for `Cc1cc([N+](=O)[O-])nn1Cc1ccc(C(=O)N/N=C/c2ccccc2)cc1` was inactive: -10.5%.
As for `COc1ccccc1NC(=O)c1ccc(S(=O)(=O)N(C)c2ccccc2)cc1`, the “growth rescue (activation)” value was inactive: -9.18%.
The value for `O=C(Nc1ccccc1)N1CCC(O)(c2cccc(C(F)(F)F)c2)CC1` was inactive: -5.77%; that for `CC(=O)c1ccc(S(=O)(=O)Oc2ccc(-c3ccc(C(=O)O)cc3)cc2)cc1` was inactive: 1.12%.
In the case of `CC1(C(=O)NS(=O)(=O)c2ccc(C#N)cc2)CCN1C(=O)Cc1ccccc1Cl` (configuration not stated) it was inactive: 5.81%.
`CCC(=O)NC1(C(F)(F)F)C(=O)Nc2c1c(=O)[nH]c(=O)n2Cc1ccco1` (configuration not stated): the “growth rescue (activation)” value is inactive: 6.06%.
Take `O=C(Cc1ccccc1Cl)Nc1cccnc1`: the “growth rescue (activation)” value was inactive: 11.7%.
The value for `Cc1nn(C)cc1CN(C)Cc1c(C(=O)N(C)Cc2ccccc2)nc2ccccn12` was inactive: -0.631%; that for `Cc1ccc(Nc2nc3nonc3[nH]c2=O)cc1Cl` was inactive: -8.79%.
The value for `Cc1ccc2c(c1)c1c3n2CCN(CC#N)C3CCC1` (configuration not stated) was inactive: 4.86%; that for `S=C(NC1CCCC1)N1CCOCC1` was inactive: -3.2%.
In the case of `O=C(NC1CCCC1)C(c1ccccn1)N(C(=O)c1csnn1)c1ccccc1Cl` (configuration not stated) it was inactive: 7.71%; in that of `Clc1cccc(OCCN2CCN(CCOc3cccc(Cl)c3)CC2)c1`, inactive: 3.36%; in that of `COc1ccccc1NS(=O)(=O)c1ccc(C(=O)NCc2ccc(S(N)(=O)=O)cc2)cc1`, inactive: -5.13%.
Consider `CCn1ccnc1CN(C)Cc1c(C(=O)N2C[C@@H](C)O[C@@H](C)C2)nc2ccc(Cl)cn12`, for which the “growth rescue (activation)” value was inactive: 16.4%.
In the case of `CC(C)Oc1ccc(C(=O)NC(=S)N2CCOCC2)cc1` it was inactive: 27.3%; in that of `Cc1ccc(S(=O)(=O)N2CC(O)C[C@H]2C(=O)OCC(=O)c2ccccc2)cc1` (some centres not stated), inactive: 15%.
As for `COc1ccc(Cl)cc1NC(=O)CSc1nc(NS(=O)(=O)c2ccccc2)cc(=O)[nH]1`, the “growth rescue (activation)” value was inactive: 10.4%.
The value for `O=C(Nc1ccc(Oc2nnc(-c3ccccc3)c3ccccc23)cc1)c1ccccc1` was inactive: 15.2%.
In the case of `CCNC(=O)CN1C(=O)NC2(CCOc3ccccc32)C1=O` (configuration not stated) it was inactive: -12.2%.
In the case of `CCOC(=O)C1CCCN(C(=O)CNC(=O)c2nn(-c3ccc(OC)c(Cl)c3)c(=O)c3ccccc23)C1` (configuration not stated) it was inactive: 14%; in that of `CC(=O)Nc1cccc(OCC(=O)Nc2ccc(F)cc2)c1`, inactive: 13.5%; in that of `CCN(CC)CCNC(=O)c1cc2c(=O)n(CC)c3ccccc3c2s1`, inactive: -4.36%.
In the case of `COc1ccccc1CNC(=O)CN1C(=O)NC2(CCCCCCC2)C1=O`, the “growth rescue (activation)” value was inactive: 3.61%.
The value for `Cc1ccc2c(c1)C(=O)C(=O)N2CC(=O)Nc1ccccc1NC(=O)c1ccccn1` was inactive: -10.3%.
The value for `COc1ccc(N(CC(=O)NCc2ccco2)S(C)(=O)=O)c(OC)c1` was inactive: -0.0257%.
For the compound `Cc1cccc(-n2c(SCC(=O)N3CCCC3)nnc2-c2ccccn2)c1C`, the “growth rescue (activation)” value is inactive: 31.3%.
As to `CCCc1nc(SCC(=O)N2CCOCC2)c2c(C)c(C)sc2n1`, the “growth rescue (activation)” value was inactive: 12.8%.
The value for `O=C(CNC(=O)c1ccc(F)cc1)c1ccc(Cl)cc1` was inactive: -38.7%.
The value for `COC(=O)C(NS(=O)(=O)c1ccc(C)cc1)c1ccccc1` (configuration not stated) was inactive: -11.4%; that for `O=C(NCc1ccco1)/C(=C/c1ccc([N+](=O)[O-])cc1)NC(=O)c1ccco1` was inactive: 8.84%; that for `Cc1cc(C(=O)N/N=C(\CCC(=O)O)c2cccs2)c2ccccc2n1` was inactive: 9.23%.
In the case of `COc1ccc(-c2csc3nc[nH]c(=O)c23)cc1OC` it was inactive: -3.28%.
With `Cc1cc2nc(/N=C(\N)NC(=O)N3c4ccccc4Sc4ccccc43)nc(C)c2cc1C`, the “growth rescue (activation)” value is inactive: 18.8%.
In the case of `CCCOc1ccccc1NC(=O)Nc1ccccc1Cl`, the “growth rescue (activation)” value was inactive: 2.69%.
Consider `N=c1c(S(=O)(=O)c2ccccc2)cc2c(=O)n3ccccc3nc2n1C1CCCCC1`, for which the “growth rescue (activation)” value is inactive: -2.44%.
Consider `Cc1cccc(NS(=O)(=O)c2ccc(C)c(NS(=O)(=O)c3cccs3)c2)c1`, for which the “growth rescue (activation)” value was inactive: -26.4%.
With `CCCNC(=O)C1(C)CCCN(Cc2ccc(Cl)cc2)C1` (configuration not stated), the “growth rescue (activation)” value is inactive: 7.64%.
The value for `CCc1nc2c(OCc3ccc(F)c(F)c3)cccn2c1N(C)C(=O)c1ccc(OC)cc1` was inactive: -4.48%; that for `Cc1ccccc1OCC(=O)NCCNC(=O)c1ccncc1` was inactive: -6.21%; that for `CCCCOc1ccc(C(O)(CCC)CCN2CCOCC2)cc1` (configuration not stated) was inactive: -3.25%.
The value for `O=C(COC(=O)c1ccc([N+](=O)[O-])o1)Nc1ccc2c(c1)OCO2` was inactive: -72.8%; that for `CN(C)C(=S)NC(=O)C12CC3CC(C)(CC(C)(C3)C1)C2` was inactive: 28.5%.
